According to ChEMBL document CHEMBL4888484, “Replenishing the malaria drug discovery pipeline: Screening and hit evaluation of the MMV Hit Generation Library 1 (HGL1) against asexual blood stage Plasmodium falciparum ,using a nano luciferase reporter read-out” (2022):
The campaign covered roughly 4,800 compounds. About 420 (8.8%) showed an effect of 50% or more. This is one part of the list.

What follows are compounds tested on Plasmodium falciparum (assay: Confirmatory screen in NF54 nanoGlo assay, in single point, at 2uM, 72h). Conditions: timepoint 72 hour.
Assay type: functional, Erythrocyte

First: COc1ccccc1[C@H]1CCN(S(=O)(=O)c2ccccc2)C1
Second: O=C(Nc1ccccc1)N1CCc2scc[n+]2-c2ccccc21
The “% Inhibition” value of the first is higher: -4% for the first, -11% for the second.

Going from `COc1ccccc1C1CC1c1nc(CC(=O)NC2CCCC2)no1` (centres undefined) to `COc1ccccc1N1CCN(CCC(=O)NC2CCCCC2)CC1`, the “% Inhibition” value rises from -8% to -2%.

First: CC(C)(C)c1noc(OCc2cccc(C#N)c2)n1
Second: CNc1nccc(OCc2ccccc2)n1
The “% Inhibition” value of the first is higher: 4% for the first, 0% for the second.

Going from `COc1ccc2c(c1)CCc1c[nH]nc1-2` to `CCOc1cc2c(cc1OC)[C@@H](N)CC2=O`, the “% Inhibition” value rises from -7% to 1%.

Going from `Cc1nnc([C@@H]2COCCN2Cc2csc(C)c2)o1` to `Cc1ccnc(Nc2ccc(N3CCNCC3)nn2)c1`, the “% Inhibition” value rises from 0% to 36%.

Going from `O=C(Nc1ccc(C2(c3ccc(NC(=O)c4ccc(F)cc4)cc3)c3ccccc3C(=O)c3ccccc32)cc1)c1ccc(F)cc1` to `Cc1ccc(S(=O)(=O)c2c(NS(=O)(=O)c3ccc(F)cc3)n(CCc3ccccc3)c3nc4ccccc4nc23)cc1`, the “% Inhibition” value rises from 67% to 100%.

First: Cn1c(-c2ccc(Br)cc2)cn2cc(-c3ccc(Cl)cc3)nc12
Second: COc1ccc(-n2nc(-c3ccc(C)cc3)c3cnc4c(F)cccc4c32)cc1
The “% Inhibition” value of the first is higher: -5% for the first, -10% for the second.

Compared with `CCCCCC1CCC(c2ccc(-c3ccc(CC)cn3)cc2F)CC1` (centres undefined), `O=C(c1cccc2cc[nH]c12)N(CC1CC1)C1CC1` is lower in “% Inhibition” value: 5% for the first, -4% for the second.

Going from `O=C(Nc1ccccc1Br)c1cc(-c2ccc3c(c2)CCO3)no1` to `CC(=O)c1ccc(NC(=O)c2cnc(-c3ccc4c(c3)CCO4)s2)cc1`, the “% Inhibition” value rises from -4% to -3%.

Going from `Cc1ccn(-c2cc(-c3cccs3)cc(-n3ccc(C)n3)n2)n1` to `Cc1cc(NC(=O)c2ccccn2)n(-c2nc3ccccc3o2)n1`, the “% Inhibition” value rises from 5% to 88%.

Going from `Cc1noc(Cn2c(=O)c3cc4c(cc3n(CC(=O)Nc3cccc(Cl)c3)c2=O)OCO4)n1` to `Cc1cc2nc(C)c(=O)n(Cc3ccc(C(=O)NCc4ccco4)cc3)c2cc1C`, the “% Inhibition” value falls from 3% to 1%.

First: Cc1ccc(S(=O)(=O)Nc2c(S(=O)(=O)c3ccc(C)cc3)c3nc4ccccc4nc3n2C[C@H]2CCCO2)cc1
Second: COc1ccc(CN(c2ccc(C)cc2)S(=O)(=O)c2ccc3nnc(C)n3c2)cc1
The “% Inhibition” value of the first is higher: 52% for the first, -8% for the second.

Going from `O=C(N[C@H]1C[C@H]2C(=O)Nc3ccccc3C(=O)N2C1)c1cccnc1` to `O=C1c2cnccc2[C@](O)(c2ccccc2)N1Cc1ccccc1`, the “% Inhibition” value falls from 3% to -16%.

First: Cc1ccccc1N1CCN(C(=O)c2csc(C(=O)NC3CCCC3)n2)CC1
Second: O=C(NC1CCCC1)c1nc(C(=O)N2CCN(c3cccc(Cl)c3)CC2)cs1
The “% Inhibition” value of the first is higher: -7% for the first, -13% for the second.

First: Cc1cnn(CCCNC(=O)c2ccc3[nH]c4c(c3c2)CCCC4)c1
Second: CC[C@H]1Cn2c(C(=O)NCCN3CCCC3)cc3cccc(c32)O1
The “% Inhibition” value of the first is higher: -4% for the first, -17% for the second.

First: COc1cccc(NC(=O)c2ccccc2C(=O)OCCN2CCOCC2)c1
Second: COc1ccc(C)cc1-n1ccc(C(=O)N2CCCc3c(C(N)=O)cccc32)n1
The “% Inhibition” value of the first is higher: -2% for the first, -11% for the second.

First: Cc1c(Br)c(C(F)F)nn1CC(=O)N[C@@H](C)C(C)(C)C
Second: C=CCNCc1cccc(OC)c1OCC(=O)NC(C)(C)C
The “% Inhibition” value of the first is lower: -16% for the first, 2% for the second.

First: CON(C)C[C@H](O)Cn1cc(Nc2ncnc3cc(F)ccc23)cn1
Second: Fc1cccc(Cl)c1Cn1ccc(Nc2nnc(Cn3cc(Cl)cn3)s2)n1
The “% Inhibition” value of the first is higher: -2% for the first, -8% for the second.

Compared with `CC1CCCCC1N(C)C(=O)c1cc2ccccc2c(=O)[nH]1` (centres undefined), `CCn1c(=O)c(N2CCC[C@H](C(=O)NCc3ccccc3OC)C2)nc2cccnc21` is higher in “% Inhibition” value: -9% for the first, -7% for the second.

Compared with `COC(=O)[C@@](c1cc(Cl)c(O)c(Cl)c1)(N1CCOCC1)C(F)(F)F`, `O=C(Cc1ncc(C(F)(F)F)cc1Cl)c1ccc(Cl)cc1Cl` is lower in “% Inhibition” value: -1% for the first, -6% for the second.

First: Cc1cc(C)n2c(-c3cccnc3)nnc2n1
Second: Cc1cc(C)c(NC(=O)OCc2cccc3cccnc23)c(C)c1
The “% Inhibition” value of the first is lower: -6% for the first, 83% for the second.

Going from `O=C1CCC(C(=O)NCC2CCCOC2)(c2ccccc2)CN1` (centres undefined) to `O=C(NC1CC(c2ccccc2)C1)N1CCS(=O)(=O)CC1` (centres undefined), the “% Inhibition” value rises from -12% to -7%.

Compared with `C[C@H]1CS(=O)(=O)N(c2ccc(C(=O)Nc3ccccc3Oc3ccccc3)c(Cl)c2)C1=O`, `CN1CCCN(c2ccc(NC(=O)c3nn(-c4ccccc4)c(=O)c4ccccc34)cc2F)CC1` is higher in “% Inhibition” value: -5% for the first, 49% for the second.

First: COc1ccccc1C(=O)NC1=NN2C(=NC(c3ccc(Cl)cc3)=C[C@H]2c2ccc(Cl)cc2)N1
Second: c1ccc(Nc2nc(-c3ccccc3)cc(-c3ccccc3)n2)cc1
The “% Inhibition” value of the first is higher: 94% for the first, 3% for the second.

First: Cc1sc2ncnc(N3CCCCC3)c2c1C(=O)Nc1cc(F)ccc1Cl
Second: CCOC(=O)N1CCC(NC(=O)c2cn[nH]c2-c2ccc(OCC)c(Cl)c2)CC1
The “% Inhibition” value of the first is lower: 1% for the first, 2% for the second.

Compared with `Cc1ccsc1NC(=O)OC(C)(C)C`, `Cc1noc(C)c1C(=O)N[C@@H](CC(C)C)C(=O)OCc1ccccc1` is lower in “% Inhibition” value: 1% for the first, -4% for the second.

Compared with `COc1ccc(CC[C@H](C)NC(=O)NCCCN2CCCC2=O)cc1`, `COc1ncnc2c1CN(C(=O)NCC1(Cc3ccccc3)CCC1)CC2` is lower in “% Inhibition” value: 7% for the first, -14% for the second.

First: Cn1c(Cc2n[n+]3c(-c4ccccc4)cc(-c4ccccc4)nc3n2C)n[n+]2c(-c3ccccc3)cc(-c3ccccc3)nc12
Second: CCN(CC)C(=O)c1cnc2snc(C)c2c1N1CCC(C(=O)Nc2c(C)cc(C)cc2C)CC1
The “% Inhibition” value of the first is higher: 99% for the first, 57% for the second.

First: CC(C)c1nccn1CCC(=O)Nc1ncn(C2CCCCC2)n1
Second: CC(=O)NCC(=O)N(Cc1ccco1)C1(C(=O)NC2CCCCC2)CCCCC1
The “% Inhibition” value of the first is lower: -9% for the first, -4% for the second.

Going from `c1cc2c(cc1[C@H]1NCCCCCCO1)OCO2` to `O=C1NC2(CCCCCCC2)C(=O)N1CN(C1CCCCC1)C1CC1`, the “% Inhibition” value rises from -14% to 0%.

Going from `O=C(C1CCC1)N1CCC[C@H]1c1nc(C2CCOCC2)no1` to `O=C(Nc1nncs1)NC(C1CC1)C1CC1`, the “% Inhibition” value falls from 4% to 0%.

Going from `O=C(CCNC(=O)C1CC1c1c(F)cccc1Cl)NC1CCS(=O)(=O)C1` (centres undefined) to `NC(=NCCOc1ccc(Br)cc1)N1CCOCC1`, the “% Inhibition” value rises from -18% to 3%.
